Laboratory results taken from the supplement of paper PMC10338343.
± gives the standard deviation. This is a selection; strong and weak results do not stand in their true shares.

Tested on: MIWI (PIWIL1) piRISC loaded with piRNA #1 (30 nt)
Assay: pre-steady-state target cleavage rate (min^-1); MIWI and MILI are mouse PIWI proteins and EfPiwi is from a freshwater sponge; tags in brackets are library labels; higher = faster piRNA-guided slicing of the target
Settings: guide: piRNA #1 5'p-UGAGGUAGUAGGUUGUAUAGUAUCCAGAGG; auxiliary factor: 500 nM mouse GTSF1
Outline: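 Cleave-'n-Seq reactions paired 0.1 nM transcribed, DNA-blocked target RNA library with 1 nM active affinity-purified piRISC holding one synthetic guide, plus or minus 500 nM GTSF1 partner protein, in HEPES–potassium acetate buffer at 33 °C for 0–8 or 0–960 min. After sequencing of uncleaved targets and normalisation to depth and weakly complementary targets, the pre-steady-state cleavage rate was taken from a burst-and-steady-state fit. Three trials were pooled, and k3 was capped at 0.0001 min^-1.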

Sequence	pre-steady-state target cleavage rate
GGAGACGAUACUAUACUACCUAGUACCUCA	0.315 ± 0.04
GGAGUGGAUAGAAUACAACCUACUACCUCA	0.962 ± 0.078
GGACUGGAUACUGUACAACCUACUACCUCA	1.79 ± 0.13
GCACUGGAUACUUUACAACCUACUACCUCA	1.75 ± 0.11
GGAGACCAUACUAUACAACUUACUACCUCA	0.377 ± 0.026
GGAGACGAAACUAUACAUCCUACUACCUCA	0.978 ± 0.07
GGACUGGAUACUAUACAAGCUACUACGUCA	0.978 ± 0.064
CCUCUGGAUACUAUACAACCUACUUCCUCA	0.668 ± 0.053
GGAGACCUAUGAUAUGUUCCUAACUACCUCA	< 0.0001
CCUCUGGAUACUAUACAACCUACUACGAGA	0.393 ± 0.08
GGAGACCAUACAUUACAACCUACUACCUCA	0.32 ± 0.055
GGAGACCUAUGAUAUCAACCUUCAACCUCA	< 0.0001
GGUCUGGAUUGAAUACAACCUACUACCUCA	0.555 ± 0.065
GCUCUGGAUACUAUACAACCUACUAUCCUCA	1.51 ± 0.11
GGUCUGGAUUCUAUACAAGCUACUACCUCA	1.17 ± 0.054
GGACUGGAUUCUAUACAACCUACUUCCUCA	0.0166 ± 0.0046
GGAGAGGUAACUAUACAACCUACUACCUCA	0.489 ± 0.045
GGUCUGGAUACUAUACUACCUACUACGUCA	0.855 ± 0.053
CCUCUGGAUACUAAACAACCAACUACCUCA	0.173 ± 0.022
GGAGAGGAUACUAUACAACCUAGAACCUCA	0.0166 ± 0.0042
GGUCUGGAUCACUAUACAACCUACUACCUCA	1.08 ± 0.1
GGAGACGAUACUAUACAACCUCCUACCUCA	0.915 ± 0.039
GGAGUGGAUACUAUACAUCCUUCUACCUCA	0.249 ± 0.017
GGAGACCAUACUAAACAACGUACUACCUCA	0.22 ± 0.028
GCUCUGGAUACUUUACAACCAACUACCUCA	0.124 ± 0.015
GGAGAGGAUACUCUACAACCUACUACCUCA	1.57 ± 0.067
GGACCGGAUACUAUACAACCUACUACCUCA	1.77 ± 0.11
GGAGACCUAUGUAUACAACCUACUAACCUCA	0.0929 ± 0.015

Sequence	pre-steady-state target cleavage rate
GGAGAGGAUACUAUACAAGCUACUACCUGA	0.421 ± 0.032
GGAGACCAUACUAUACAACCUAGUACCUGA	0.0113 ± 0.0053
GCUCUGGUUACUAUACAACCUACUACCUGA	0.96 ± 0.11
GCUCUGGAUACAAUAGAACCUACUACCUCA	0.787 ± 0.056
GGAGACGAUACUAUUCAACCUACUACGUCA	0.67 ± 0.06
GGAGACGAUACUAUACAACCUACAACCACA	0.699 ± 0.18
GGACUGGAUACUAUCAACCUACUACCUCA	1.54 ± 0.13
GCUCUGGAUAGUAUAGAACCUACUACCUCA	0.714 ± 0.063
GCUCUGGAUAGUAUACAACCUACUAGCUCA	0.413 ± 0.054
GGAGACCUAUCUAUACAACCUAUUACCUCA	0.459 ± 0.046
GGAGACGAUACUAAUACAACCUACUACCUCA	1.37 ± 0.095
GGACUGGAUACUAUUCAAGCUACUACCUCA	1.01 ± 0.066
GGAGACCAUUCUAUACAUCCUACUACCUCA	0.728 ± 0.061
GGAGACCUAUGAUAUGUACCUACUACCAUCA	< 0.0001
GGAGACCUAUCUAUACAACCUACUACCGCA	1.05 ± 0.092
GGACUGGUACUAUACAACCUACUACCUCA	1.63 ± 0.13
GGAGUGCGAUACUAUACAACCUACUACCUCA	1.7 ± 0.096
GGACUGGAUACUAUAGAACCUACUACCACA	0.0248 ± 0.0067
GCUCUGGAUACUAUACAAGCUACUACGUCA	0.699 ± 0.035
GGAGACCUAACUAUAGAACCUACUUCCUCA	0.0104 ± 0.0059
CGUCUGGAUACUAUACAACCUACUACGUCA	1.59 ± 0.082
GGAGACCUUACUAUACAACGUACUACCACA	0.489 ± 0.048
GGAGAGGAUACUAUACUACCUACUUCCUCA	0.216 ± 0.03
GGACUGGAUACUAUACAACCUACUGCCUCA	0.817 ± 0.097
GGAGUGGAUACUAUACAACCUACUACUCA	0.185 ± 0.028
GGAGUGGAUACUAUACAACCUACUACCUACA	0.717 ± 0.044
GGAGACCUUUCUAUACAACCUACUACCACA	0.841 ± 0.089
